The supplement of paper PMC12582362
Counter-ions that a name gives are not always drawn. In all, about 1,500 compounds went through this assay and about 30 (2%) showed activity.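 The calls were made as follows: active = robust z-score below -2; a few such results were not called.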 The list shows a part of the results.

system: optoTopBP1 Flp-In 293 T-REx (HEK293) cells; experiment: light-induced TopBP1 condensate (nuclear foci) count, plate-normalised robust z-score vs non-control wells; higher = more TopBP1 condensates (negative = condensation inhibitor), active = hit call of the paper; conditions: 10 µM; incubation time 2 h

SMILES	light-induced TopBP1 condensate (z-score)
O=C1CN2Cc3c(ccc(Cl)c3Cl)N=C2N1 [Anagrelide]	inactive: -0.566
CC(C)NCC(O)COc1ccc(COCCOC(C)C)cc1 (stereo not drawn) [Bisoprolol fumarate]	inactive: 0.768
Nc1nc(=S)c2ncn([C@@H]3O[C@H](CO)[C@@H](O)[C@H]3O)c2[nH]1 [Thioguanosine]	inactive: 1.17
CN1C2CCCC1CC(NC(=O)c1nn(C)c3ccccc13)C2 (stereo not drawn) [Granisetron]	inactive: -0.344
CC(C)N1CCN(c2ccc(OCC3COC(Cn4cncn4)(c4ccc(Cl)cc4Cl)O3)cc2)CC1 (stereo not drawn) [Terconazole]	inactive: -0.114
O=C(NCCNCC(O)COc1ccc(O)cc1)N1CCOCC1 (stereo not drawn) [Xamoterol hemifumarate]	inactive: -0.645
CN(C)CCOC1=Cc2ccccc2Sc2ccc(Cl)cc21 [Zotepine]	inactive: 0.612
CCN(Cc1ccncc1)C(=O)C(CO)c1ccccc1 (stereo not drawn) [Tropicamide]	inactive: 0.0637
CCN(CC)CC#CCOC(=O)C(O)(c1ccccc1)C1CCCCC1 (stereo not drawn) [Oxybutynin chloride]	inactive: -0.907
Cc1ncc([N+](=O)[O-])n1CCO [Metronidazole]	inactive: 1.01
OC(CCN1CCCCC1)(c1ccccc1)C1CC2C=CC1C2 (stereo not drawn) [Biperiden hydrochloride]	inactive: -0.0758
COc1ccc(C(=O)NCc2cccnc2)cc1C(=O)NCc1cccnc1 [Picotamide monohydrate]	inactive: 0.793
C=CC[C@@H]1/C=C(\C)C[C@H](C)C[C@H](OC)[C@H]2O[C@@](O)(C(=O)C(=O)N3CCCC[C@H]3C(=O)O[C@H](/C(C)=C/[C@@H]3CC[C@@H](O)[C@H](OC)C3)[C@H](C)[C@@H](O)CC1=O)[C@H](C)C[C@@H]2OC [Tacrolimus Monohydrate]	inactive: -0.289
NC[C@H]1O[C@H](O[C@H]2[C@H](O[C@@H]3O[C@H](CO)[C@@H](O)[C@H]3O)[C@@H](O)[C@H](N)C[C@@H]2N)[C@H](N)[C@@H](O)[C@@H]1O [Ribostamycin sulfate salt]	inactive: 0.143
Cc1ccc(C(=O)c2cc(O)c(O)c([N+](=O)[O-])c2)cc1 [Tolcapone]	inactive: -0.692
COc1ccc2[nH]cc(CCNC(C)=O)c2c1 [Melatonin]	inactive: 0.29
COc1cc2nc(N3CCN(C(=O)c4ccco4)CC3)nc(N)c2cc1OC [Prazosin hydrochloride]	inactive: -1.44
CCCCS(=O)(=O)N[C@@H](Cc1ccc(OCCCCC2CCNCC2)cc1)C(=O)O [Tirofiban hydrochloride]	inactive: 0.237
CCn1cc(C(=O)O)c(=O)c2cnc(N3CCNCC3)nc21 [Pipemidic acid]	inactive: -0.521
COc1nc(C)nc(Cl)c1NC1=NCCN1 [Moxonidine]	inactive: 0.754
Cc1ccc(S(=O)(=O)NC(=O)NN2CC3CCCC3C2)cc1 (stereo not drawn) [Gliclazide]	inactive: -0.167
CCC(C)C(C(=O)OCC[N+](C)(CC)CC)c1ccccc1 (stereo not drawn) [Valethamate bromide]	inactive: -0.286
CC(=O)N[C@@H](CC(=O)N[C@@H](CCC(=O)O)C(=O)O)C(=O)O [Spaglumic acid]	inactive: 1.44

SMILES	light-induced TopBP1 condensate (z-score)
C#CCN(C)Cc1ccccc1 [Pargyline hydrochloride]	inactive: 0.044
COc1ccc2cc(CCC(C)=O)ccc2c1 [Nabumetone]	inactive: -0.637
C[C@H]1[C@@H](O)O[C@@H]2O[C@@]3(C)CC[C@H]4[C@H](C)CC[C@@H]1[C@@]24OO3 [Artenimol]	inactive: 0.222
CCN(CC)CCNC(=O)c1cc(S(C)(=O)=O)ccc1OC [Tiapride hydrochloride]	inactive: 0.628
O=C(CCCN1CC=C(n2c(=O)[nH]c3ccccc32)CC1)c1ccc(F)cc1 [Droperidol]	inactive: 0.975
CC1(C)OC(=O)NC1=O [Dimethadione]	inactive: -0.197
N=C(N)NCC1COC2(CCCCC2)O1 (stereo not drawn) [Guanadrel sulfate]	inactive: 0.53
Cn1nnnc1SCC1=C(C(=O)O)N2C(=O)[C@@H](NC(=O)[C@H](O)c3ccccc3)[C@H]2SC1 [Cefamandole sodium salt]	inactive: 0.121
CCC[C@H](N[C@@H](C)C(=O)N1[C@H](C(=O)O)C[C@@H]2CCCC[C@@H]21)C(=O)OCC [Perindopril]	inactive: 0.452
Nc1ccc(C(=O)NCC(=O)O)cc1 [Aminohippuric acid]	inactive: -0.961
Nc1ccc(S(=O)(=O)c2ccc(N)cc2)cc1 [Dapsone]	inactive: 2.21
CN(C)CCc1c[nH]c2ccc(Cn3cncn3)cc12 [Rizatriptan benzoate]	inactive: -0.77
OCCN1CCN(CCCN2c3ccccc3Sc3ccc(Cl)cc32)CC1 [Perphenazine]	inactive: -0.632
C=C1C[C@H]2[C@@H]3C=C(C)C4=CC(=O)CC[C@]4(C)[C@H]3CC[C@]2(C)[C@@]1(OC(C)=O)C(C)=O [Melengestrol acetate]	inactive: -0.246
CC(=O)Oc1cccc2c1C(=O)c1c(OC(C)=O)cc(C(=O)O)cc1C2=O [Diacerein]	inactive: -1.09
CN1CCCCC1CCN1c2ccccc2Sc2ccc([S+](C)[O-])cc21 (stereo not drawn) [Mesoridazine besylate]	inactive: 0.412
NC(=O)N/N=C/c1ccc([N+](=O)[O-])o1 [Nitrofural]	inactive: -0.288
CN(C)CCC[C@@]1(c2ccc(F)cc2)OCc2cc(C#N)ccc21 [Escitalopram oxalate]	inactive: 0.231
CCCC(=O)Nc1ncnc2c1ncn2[C@@H]1O[C@@H]2COP(=O)(O)O[C@H]2[C@H]1OC(=O)CCC [Bucladesine sodium salt]	inactive: 1
CN1CCCC(n2nc(Cc3ccc(Cl)cc3)c3ccccc3c2=O)CC1 (stereo not drawn) [Azelastine hydrochloride]	inactive: -1.27
CCN1CCN(C(=O)N[C@@H](C(=O)N[C@@H]2C(=O)N3[C@@H]2SC(C)(C)[C@@H]3C(=O)O)c2ccccc2)C(=O)C1=O [Piperacillin sodium salt]	inactive: 0.0263
CO[C@@H]1[C@@H](OC(N)=O)[C@@H](O)[C@H](Oc2ccc3c(O)c(NC(=O)c4ccc(O)c(CC=C(C)C)c4)c(=O)oc3c2C)OC1(C)C [Novobiocin sodium salt]	inactive: 1.34
COc1c2occc2c(OC)c2c(=O)cc(C)oc12 [Khellin]	inactive: 1.99

SMILES	light-induced TopBP1 condensate (z-score)
Nc1cc(C(Cl)=C(Cl)Cl)c(S(N)(=O)=O)cc1S(N)(=O)=O [Clorsulon]	inactive: -0.193
CC(=O)c1cc2cccc(OCC(O)CNC(C)C)c2o1 (stereo not drawn) [Befunolol]	inactive: -0.826
CC[C@H](C)C(=O)O[C@H]1CCC=C2C=C[C@H](C)[C@H](CC[C@@H]3C[C@@H](O)CC(=O)O3)[C@H]21 [Mevastatin]	inactive: -0.133
CN1CCN(c2c(F)cc3c(=O)c(C(=O)O)cn(CCF)c3c2F)CC1 [Fleroxacin]	inactive: -0.0757
C[C@H](CCC(=O)O)[C@H]1CC[C@H]2[C@@H]3[C@H](O)C[C@@H]4C[C@H](O)CC[C@]4(C)[C@H]3CC[C@]12C [Chenodiol]	inactive: -0.27
CC(=O)OCC(CCn1cnc2cnc(N)nc21)COC(C)=O [Famciclovir]	inactive: 0.424
NNc1nncc2ccccc12 [Hydralazine hydrochloride]	inactive: 1.01
CN1CCN(CCCN2c3ccccc3Sc3ccc(Cl)cc32)CC1 [Prochlorperazine dimaleate]	inactive: -0.188
Cc1nc(=O)c2cc(CN(C)c3ccc(C(=O)N[C@@H](CCC(=O)O)C(=O)O)s3)ccc2[nH]1 [Raltitrexed]	inactive: -0.968
CC(/C=C1\SC(=S)N(CC(=O)O)C1=O)=C\c1ccccc1 [Epalrestat]	inactive: -0.306
O=c1oc2ccccc2c(O)c1Cc1c(O)c2ccccc2oc1=O [Dicumarol]	inactive: -0.011
CC(C)NC[C@@H](O)COc1cccc2ccccc12 [(R)-Propranolol hydrochloride]	inactive: 0.474
CCN(CC)CCc1nc(-c2ccccc2)no1 [Oxalamine citrate salt]	inactive: -0.151
CNCC(O)c1ccc(OC(=O)C(C)(C)C)c(OC(=O)C(C)(C)C)c1 (stereo not drawn) [Dipivefrin hydrochloride]	inactive: -1.55
CC(C)NCC(O)c1ccc(O)c(O)c1 (single isomer, unassigned; (+)) [(+)-Isoproterenol (+)-bitartrate salt]	inactive: 0.313
Cc1c(N(C)CS(=O)(=O)O)c(=O)n(-c2ccccc2)n1C [Dipyrone]	inactive: -0.0363
CC(NCCC(c1ccccc1)c1ccccc1)c1ccccc1 (stereo not drawn) [Fendiline hydrochloride]	active: -2.06
O=c1[nH]c(=O)n(C2CCCO2)cc1F (stereo not drawn) [Tegafur]	inactive: -0.488
Nc1nc2n[nH]nc2c(=O)[nH]1 [Azaguanine-8]	inactive: 0.506
CN(C)c1nc(N(C)C)nc(N(C)C)n1 [Altretamine]	inactive: -1.17
CC(C)NCC(O)c1ccc2ccccc2c1 (stereo not drawn) [Pronethalol hydrochloride]	inactive: 1.01
C[C@H]1C[C@@H]2[C@H]([C@@H](O)C[C@@]3(C)[C@H]2CC[C@]3(O)C(=O)CO)[C@@]2(C)C=CC(=O)C=C12 [Methylprednisolone, 6-alpha]	inactive: -0.268
